± gives the standard deviation of the averaged measurements. The list shows a part of the results.
Experiments:
[1] = test system: murine small intestinal organoids (ENR+CD Paneth differentiation); assay: cellular ATP (CellTiter-Glo 3D) relative to plate median (log10 fold change); higher = more viable cells; settings: 6 d
[2] = test system: murine small intestinal organoids (ENR+CD Paneth differentiation); assay: carbachol-stimulated secreted lysozyme activity relative to plate median (log10 fold change); higher = more Paneth cell lysozyme secretion; settings: 6 d, carbachol 10 µM
[3] = test system: murine small intestinal organoids (ENR+CD Paneth differentiation); assay: basal (non-stimulated) secreted lysozyme activity relative to plate median (log10 fold change); higher = more Paneth cell lysozyme secretion; settings: 6 d
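Throughout, for basal (non-stimulated) secreted lysozyme activity relative to plate median: ISC-enriched organoid precursors grown as 2.5D pseudo-monolayer on Matrigel, compound given on day 0 and day 3, plate values LOESS-normalized before median fold change, three murine donors.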
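Throughout, for cellular ATP (CellTiter-Glo 3D) relative to plate median: 2.5D pseudo-monolayer culture of ISC-enriched organoids partly embedded atop Matrigel, compound added on day 0 and again on day 3, per-plate LOESS correction before median fold change.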

Compound	cellular ATP (log10) ([1]; 0.08 µM)	cellular ATP (log10) ([1]; 0.4 µM)	cellular ATP (log10) ([1]; 2 µM)	cellular ATP (log10) ([1]; 10 µM)	carbachol-stimulated secreted lysozyme activity (log10) ([2]; 0.08 µM)	carbachol-stimulated secreted lysozyme activity (log10) ([2]; 0.4 µM)	carbachol-stimulated secreted lysozyme activity (log10) ([2]; 2 µM)	carbachol-stimulated secreted lysozyme activity (log10) ([2]; 10 µM)	basal (log10) ([3]; 0.08 µM)	basal (log10) ([3]; 0.4 µM)	basal (log10) ([3]; 2 µM)	basal (log10) ([3]; 10 µM)
Cc1c(C(=O)Nc2ccc(N3C[C@@H](C)O[C@@H](C)C3)nc2)cccc1-c1ccc(OC(F)(F)F)cc1 [LDE225 (NVP-LDE225,Erismodegib)]	0.107 ± 0.17	0.0666 ± 0.25	0.229 ± 0.16	-0.000799 ± 0.47	0.0901 ± 0.042	0.0666 ± 0.14	0.0423 ± 0.048	0.0924 ± 0.041	0.0849 ± 0.016	0.101 ± 0.08	0.0108 ± 0.089	0.049 ± 0.12
CC1(C)CCC(CN2CCN(c3ccc(C(=O)NS(=O)(=O)c4ccc(NCC5CCOCC5)c([N+](=O)[O-])c4)c(Oc4cnc5[nH]ccc5c4)c3)CC2)=C(c2ccc(Cl)cc2)C1	0.0189 ± 0.2	0.0375 ± 0.17	-0.278 ± 0.55	-0.519 ± 0.21	-0.0209 ± 0.11	0.116 ± 0.083	-0.0433 ± 0.12	-0.391 ± 0.072	-0.0015 ± 0.1	-0.0289 ± 0.092	-0.0156 ± 0.075	-0.169 ± 0.15
CCn1c(=O)c2c(nc(/C=C/c3ccc(OC)c(OC)c3)n2C)n(CC)c1=O [Istradefylline]	-0.045 ± 0.24	0.0661 ± 0.1	-0.157 ± 0.22	-0.0379 ± 0.19	0.0379 ± 0.091	-0.094 ± 0.019	-0.0607 ± 0.08	-0.0168 ± 0.14	-0.015 ± 0.12	-0.0349 ± 0.01	-0.00254 ± 0.15	-0.0406 ± 0.059
CNC(=O)c1ccc2cc([C@@]3(O)CCn4cncc43)ccc2c1 [TAK-700 (Orteronel)]	-0.0941 ± 0.09	0.00974 ± 0.16	-0.0631 ± 0.065	-0.0229 ± 0.38	0.00895 ± 0.13	0.195 ± 0.013	0.0631 ± 0.014	0.0479 ± 0.022	0.0431 ± 0.082	0.187 ± 0.26	0.114 ± 0.11	0.0168 ± 0.049
Cc1c(Cl)cccc1Nc1ccccc1C(=O)O [Tolfenamic Acid]	0.225 ± 0.19	-0.0128 ± 0.075	-0.0825 ± 0.19	-0.106 ± 0.24	0.0822 ± 0.094	0.0874 ± 0.063	0.131 ± 0.13	-0.0672 ± 0.087	0.0256 ± 0.042	0.0463 ± 0.051	-0.0409 ± 0.018	-0.0267 ± 0.088
CCOC(=O)C1=C(COCCN)NC(C)=C(C(=O)OC)C1c1ccccc1Cl (stereo unspecified) [Amlodipine]	-0.351 ± 0.38	-0.363 ± 0.71	-0.372 ± 0.38	-0.421 ± 0.47	0.000466 ± 0.089	0.063 ± 0.033	-0.0884 ± 0.058	-0.171 ± 0.031	0.0262 ± 0.13	0.0242 ± 0.084	-0.0652 ± 0.035	-0.135 ± 0.015
CCn1c(-c2nonc2N)nc2c(C#CC(C)(C)O)ncc(OC[C@H]3CCCNC3)c21	0.129 ± 0.22	0.197 ± 0.23	-0.0268 ± 0.096	-0.182 ± 0.69	-0.0224 ± 0.053	0.126 ± 0.14	0.0823 ± 0.051	-0.266 ± 0.03	0.0445 ± 0.024	0.047 ± 0.071	0.122 ± 0.062	-0.0802 ± 0.087
CCN(CC)CCCC(C)Nc1nc(C)cc(Nc2ccc3nc(C)cc(N)c3c2)n1 (stereo unspecified)	0.0431 ± 0.082	0.17 ± 0.25	0.117 ± 0.45	0.324 ± 0.54	0.0401 ± 0.0044	0.0315 ± 0.12	-0.044 ± 0.098	-0.0646 ± 0.083	0.0805 ± 0.043	0.0436 ± 0.11	0.0581 ± 0.13	0.00921 ± 0.086
O=C(O)Cc1cccc(OCCCN(Cc2cccc(C(F)(F)F)c2Cl)CC(c2ccccc2)c2ccccc2)c1	0.138 ± 0.06	0.201 ± 0.14	0.229 ± 0.18	-0.0777 ± 0.2	0.124 ± 0.23	0.0935 ± 0.21	0.237 ± 0.047	-0.0136 ± 0.086	0.0593 ± 0.14	0.00154 ± 0.081	0.0773 ± 0.072	-0.00914 ± 0.083
CCc1c2c(nc3ccc(O)cc13)-c1cc3c(c(=O)n1C2)COC(=O)[C@]3(O)CC	-0.953 ± 0.44	-0.778 ± 0.82	-0.89 ± 0.91	-1.17 ± 0.24	-0.533 ± 0.046	-0.226 ± 0.5	-0.396 ± 0.24	-0.395 ± 0.25	-0.305 ± 0.16	-0.126 ± 0.28	-0.233 ± 0.15	-0.257 ± 0.17
CN(C)C(=O)[C@H](O)[C@H](Cc1ccccc1)NC(=O)c1cc2cc(Cl)ccc2[nH]1	0.0306 ± 0.33	-0.0235 ± 0.26	-0.0979 ± 0.15	-0.1 ± 0.15	0.286 ± 0.085	0.107 ± 0.13	-0.112 ± 0.17	-0.146 ± 0.17	0.177 ± 0.25	-0.0332 ± 0.051	0.0281 ± 0.25	-0.0572 ± 0.091
C[C@]12CC[C@@H]3c4ccc(O)cc4C[C@@H](CCCCCCCCC[S+]([O-])CCCC(F)(F)C(F)(F)F)[C@H]3[C@@H]1CC[C@@H]2O (stereo partly specified) [Fulvestrant]	0.119 ± 0.21	-0.0627 ± 0.59	0.142 ± 0.19	-0.204 ± 0.094	0.00457 ± 0.16	-0.0845 ± 0.26	-0.0537 ± 0.076	-0.227 ± 0.023	0.0574 ± 0.07	-0.0496 ± 0.12	0.00035 ± 0.068	-0.0431 ± 0.044
O=S(=O)(c1ccccc1)c1cnc2c(N3CCNCC3)cccc2c1	-0.348 ± 0.18	-0.199 ± 0.17	-0.367 ± 0.34	-0.411 ± 0.27	-0.00905 ± 0.05	-0.132 ± 0.28	-0.148 ± 0.26	-0.226 ± 0.23	-0.00336 ± 0.12	-0.0874 ± 0.13	-0.0129 ± 0.23	-0.0726 ± 0.2

Source: the supplement of paper PMC9046079
